“And” between values parts separate entries of the source, which are not always exact repeats. Identical values can stand only once. Hit rate of the full screen: of about 350,000 compounds, about 9,900 (2.8%) were called active. Inconclusive results, whose numbers are uncertain, are shown with a selection of clear calls. Calls follow the shape of the dose curve; as a rule, active = well fitted activation curve with a large enough effect; inconclusive = small, poorly fitted or top-dose-only effect; inactive = no such curve, though single readings can be large or run the other way. Potencies beside an inconclusive call are fits to weak or partial responses and may not hold up.
assay: A quantitative high throughput screen for small molecules that induce DNA re-replication in MCF 10a normal breast cells.; also: nearly all actives have a fitted effect of over 50% in size; conditions: MCF 10A DNA re-replication, Hoechst nuclear intensity, 48 h; series mostly up to 46.1 µM
Potency is read from the fitted curve at half-maximal effect; tags tell the direction and shape of the fitted curve.

Row | SMILES | Potency
1 | O=C(NNCC(O)COc1ccccc1)c1ccccc1 (configuration not stated) | inactive
2 | COc1ccc(C(=O)CC(Nc2ccc([N+](=O)[O-])cc2)c2ccc(OC)cc2)cc1 (configuration not stated) | inconclusive: 0.259 µM [activator, partial curve, poor fit]
3 | Cc1ccc(C)c(N2CCN(C(=O)CCC(=O)Nc3nnc(C(F)(F)F)s3)CC2)c1 | inconclusive: 18.4 µM [activator, partial curve, poor fit]
4 | CCC(C)(C)NC(=O)C(c1ccc(C)o1)N(Cc1ccc2c(c1)OCO2)C(=O)c1snc(C(N)=O)c1N (configuration not stated) | inconclusive: 20.6 µM [activator, single point]
5 | Cc1cccc(/C=C/C(=O)c2ccc(N3CCOCC3)cc2)c1 | inconclusive: 23.1 µM [activator, partial curve, poor fit]
6 | CCOCCCNC(=O)c1cc2c(=O)n3ccccc3nc2s1 | inactive
7 | Cc1ccc(C)c(N2CCN(C(=O)c3ccc(CS(=O)Cc4ccc(Cl)cc4)o3)CC2)c1 (configuration not stated) | inconclusive: 29.1 µM [activator, single point]
8 | Cc1ccc(NC(=O)COc2ccc(/C=C3/SC(=Nc4ccccc4)N(Cc4cccnc4)C3=O)cc2)cc1 | inconclusive: 18.4 µM [activator, single point]
9 | Nc1c(N(CCC2=CCCCC2)C(=O)c2ccccc2F)c(=O)[nH]c(=O)n1Cc1ccccc1 | inconclusive: 20.6 µM [activator, single point]
10 | COc1ccc(-c2csc(NC(=O)c3ccccc3Br)c2C(=O)O)cc1 | inactive
11 | CC1(C)C(c2cccs2)=NC(c2ccccc2)N1O (configuration not stated) | inconclusive: 3.66 µM [activator, full curve]
12 | CCOc1ccc(C(=O)Nc2cc3c(cc2N2CCCC2)n(CC)c(=O)n3CC)cc1OCC | inactive
13 | CCn1c(SCC(=O)N2CCCc3ccccc32)nc2ccccc2c1=O | active: 23.1 µM
14 | Nc1n[nH]c(N)c1N=Nc1cccc(C(F)(F)F)c1 | inconclusive: 0.231 µM [activator, full curve, poor fit]
15 | CCOc1ccc(S(=O)(=O)N2CCN(C(=O)CCOc3ccccc3C)CC2)cc1 | inactive
16 | COc1ccccc1/C=C/C=C1\Oc2c(ccc(O)c2CN2CCN(CCO)CC2)C1=O | inconclusive: 25.9 µM [activator, single point]
17 | Nc1c(C2CCCCC2)c(=O)on1C(=O)c1ccccc1 | active: 14.6 µM
18 | COc1ccccc1NC(=O)CSc1nnc(Cc2cccs2)n1C | inactive
19 | Cc1cc(Cl)c2oc(C(=O)N(C)CCCN3CCOCC3)c(C)c2c1 | inconclusive: 23.1 µM [activator, partial curve, poor fit]
20 | Cc1cc(C(=O)N/N=C\c2ccc(COc3ccc([N+](=O)[O-])cc3)o2)ccc1[N+](=O)[O-] | inconclusive: 29.1 µM [activator, single point]
21 | CCOc1ccc(C2=Nn3cnnc3SC2)cc1 | inconclusive: 29.1 µM [activator, single point]
22 | Cc1ccc([N+](=O)[O-])cc1N=C(c1cccc(Br)c1)N1CCOCC1 | inactive
23 | O=C(Nc1ccccc1-c1nc2ccccc2[nH]1)c1ccc(N2C(=O)CCC2=O)cc1 | inconclusive: 29.1 µM [activator, single point]

Row | SMILES | Potency
24 | O=C(Nc1cccc(C(=O)Nc2cccc(Br)c2)c1)c1ccccc1 | inconclusive: 18.4 µM [activator, single point]
25 | Cc1ccc(S(=O)(=O)N(C)C)cc1NC(=O)CSc1nncs1 | inactive
26 | CCOc1ccc(N)c(SSc2cc(OCC)ccc2N)c1 | inconclusive: 32.6 µM [activator, single point]
27 | COCc1nnc(NC(=O)c2ccc(S(=O)(=O)N(CC(C)C)CC(C)C)cc2)o1 | inconclusive: 14.6 µM [activator, partial curve]
28 | CCn1c(SCc2ccc(F)cc2)nc2c(c1=O)SCC2 | inconclusive: 23.1 µM [activator, partial curve, poor fit]
29 | Nc1cc(=O)[nH]c(SCC(=O)Nc2cccc(S(=O)(=O)N3CCCCC3)c2)n1 | inactive
30 | Cc1cc(C)cc(NC(=S)N2CCN(c3ncccn3)CC2)c1 | inconclusive: 23.1 µM [activator, single point]
31 | C=C1C(=O)O[C@@H]2[C@@H]1CC/C(C)=C\CC[C@@]1(C)O[C@H]21 | active: 11.9 µM
32 | CNC(=S)N/N=C(\C)c1ccc(N2CCOCC2)cc1 | inconclusive: 32.6 µM [activator, partial curve, poor fit]
33 | COc1ccc(C(C(=O)NC2CCCC2)N(C(=O)c2snc(-c3ccc(F)cc3)c2N)c2ccc(F)cc2)cc1 (configuration not stated) | inconclusive: 18.4 µM [activator, single point]
34 | CCCc1cc(=O)n2[nH]c(-c3ccccc3)cc2n1 | inactive
35 | CCNC(=O)c1ccccc1NC(=O)c1cccc(S(=O)(=O)N2CCC(C)CC2)c1 | inactive
36 | COc1ccc(N(C(=O)c2cccc([N+](=O)[O-])c2)S(=O)(=O)c2ccc3c(c2)n(C)c(=O)n3C)cc1 | inconclusive: 4.61 µM [activator, full curve, poor fit]
37 | COCCNC(=O)Cn1cnc2c(cnn2-c2ccc(C)cc2)c1=O | inconclusive: 20.6 µM [activator, partial curve, poor fit]
38 | CCCCc1ccc(NS(=O)(=O)N(C)C)cc1 | inconclusive: 29.1 µM [activator, single point]
39 | Cn1c(C=O)c(-c2ccc3c(c2)OCCO3)c2ccccc21 | active: 16.4 µM
40 | COc1ccc(F)cc1S(=O)(=O)n1nc(C)cc1C | inconclusive: 32.6 µM [activator, partial curve, poor fit]
41 | Nc1nc(Cl)nc2c1ncn2[C@H]1C[C@H](O)[C@@H](CO)O1 | inactive and inconclusive: 1.16 µM [activator, single point]
42 | Cc1oc2cc(O)ccc2c(=O)c1-c1cnn(-c2ccccc2)c1 | inconclusive: 3.66 µM [activator, single point]
43 | O=C(NNc1ccc([N+](=O)[O-])cc1)C1CC2CCCC(C1)C2=O (configuration not stated) | inconclusive: 29.1 µM [activator, single point]
44 | CC(C)Oc1ccc2c(c1)OC(c1ccccc1)(C(F)(F)F)NC2=O (configuration not stated) | inconclusive: 18.4 µM [activator, partial curve, poor fit]
45 | CC1CCCCC1n1c(=S)[nH]c2ccccc2c1=O (configuration not stated) | inconclusive: 23.1 µM [activator, partial curve, poor fit]
46 | COc1ccc(C(=O)C2CCCN(C3Cc4ccccc4C3)C2)c(OC)c1 (configuration not stated) | inconclusive: 1.46 µM [activator, partial curve]

Row | SMILES | Potency
47 | COc1cc(-c2cc(-c3nnco3)c3ccccc3n2)cc(OC)c1OC | inactive
48 | O=C(COC(=O)C1CCCC1)Nc1ncc(Cl)cc1Cl | inactive
49 | Cc1ccc(-n2nc3ccc(NC(=O)/C=C/c4ccco4)cc3n2)cc1C | active: 8.2 µM
50 | CC(C)(C)C1CCc2c(sc(N)c2C(N)=O)C1 (configuration not stated) | inconclusive: 20.6 µM [activator, single point]
51 | CCN(CC)S(=O)(=O)c1cccc(NC(=O)COC(=O)c2cccs2)c1 | inconclusive: 25.9 µM [activator, single point]
52 | COc1ccc(C2=Nn3c(nnc3-c3ccccc3F)SC2)cc1OC1CCOC1 (configuration not stated) | inconclusive: 11.6 µM [activator, single point]
53 | CN1CCCC[C@@H]1CCN1c2ccccc2Sc2ccc(S(C)=O)cc21 (some centres not stated) | inactive
54 | CCCCOCCCNC(=O)Cc1cccs1 | inconclusive: 16.4 µM [activator, single point]
55 | COc1ccc2[nH]c3c(c2c1)CCN1C(=O)N([C@@H](C)C(=O)NCCc2ccc(OC)c(OC)c2)C(=O)[C@]31C | inactive
56 | CCCc1cc(-c2nc(-c3ccc(C)cc3)cs2)ccn1 | inconclusive: 18.4 µM [activator, partial curve, poor fit]
57 | COC(=O)NC1(C(=O)O)CCCC1 | inactive
58 | Cc1ccc(-c2cc(C(=O)OCC(=O)N(C)C3CCS(=O)(=O)C3)c3ccccc3n2)c(C)c1 (configuration not stated) | inactive
59 | Cc1ccc2c(c1)N(C(=O)CCC(=O)NCCCN1CCN(C)CC1)CC(C)O2 (configuration not stated) | inactive
60 | C#CCNC(=O)C1=C[C@H](C2CCCCC2)C[C@H](OCCCCO)O1 | inconclusive: 16.4 µM [activator, single point]
61 | COc1cc(OC)cc(-c2c(-c3cccs3)c3cc(-c4cccc5[nH]ccc45)ccc3n2C)c1 | inconclusive: 4.61 µM [activator, full curve, poor fit]
62 | CN[C@@H]1[C@H](O[C@H]2[C@H](O[C@H]3[C@H](O)[C@@H](O)[C@H](N=C(N)N)[C@@H](O)[C@@H]3N=C(N)N)O[C@@H](C)[C@]2(O)C=O)O[C@@H](CO)[C@H](O)[C@H]1O | inactive
63 | O=C1N[C@H]2CC=C[C@H]2N(Cc2cccs2)c2ccccc21 | inconclusive: 0.259 µM [activator, full curve, poor fit]
64 | CC(OC(=O)CSCC(=O)Nc1ccc(Cl)cc1)C(=O)N(C)Cc1ccccc1 (configuration not stated) | inconclusive: 35.5 µM [activator, single point]
65 | CCC(C(=O)N1CCc2cc(OC)c(OC)cc2C1)c1ccccc1 (configuration not stated) | inconclusive: 18.4 µM [activator, single point]
66 | COc1cc(Cl)c(CN2CCCC(CO)(Cc3cccc(Cl)c3)C2)cc1OC (configuration not stated) | inconclusive: 20.6 µM [activator, partial curve]
67 | S=C(NCc1cccnc1)Nc1ccc(Oc2ccc(Cl)cc2)cc1 | inconclusive: 29.1 µM [activator, single point]
